The whole screen tested about 360,000 compounds, of which about 740 (0.21%) were called active. Inconclusive results, whose numbers are uncertain, are shown with a selection of clear calls. The call rests on the fitted dose curve; in most records, active means well fitted inhibition curve with a large enough effect; inconclusive means small, poorly fitted or top-dose-only effect; inactive means no such curve, though single readings can be large or run the other way. Potencies of inconclusive entries are left out as doubtful fits.
The compounds below were run on Plasmodium falciparum AMA1 (3D7) - RON2 peptide interaction (assay: qHTS for Inhibitors of AMA1-RON; Towards Development of Antimalarial Drug Lead: Primary Screen). Details: AlphaScreen AMA1-biotinylated RON2 peptide binding; series mostly up to 58.2 µM.
How it was run: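 AMA1 (3D7) with his tag at 25 nM final met compounds first, then biotinylated RON2 peptide at 25 nM; detection used donor plus acceptor beads, 10 µg/mL apiece, read by AlphaScreen after 30 min at room temperature.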
Further: nearly all actives have a fitted effect of over 45% in size.
Potency means the concentration at half of the fitted maximal effect; tags describe the fitted curve by direction and shape.

Row | Compound | Potency
1 | Clc1ccc(OCC#CCN2CCCC2)cc1 | inconclusive [inhibitor, single point]
2 | COc1ccc(NC(=O)c2ccc(-n3cccn3)c([N+](=O)[O-])c2)cc1 | inactive
3 | Nc1c(S(=O)(=O)O)cc(NC(=O)c2ccccc2)c2c1C(=O)c1ccccc1C2=O | inconclusive [inhibitor, partial curve]
4 | O=c1[nH]c2ccccc2n1C1CCN(Cc2ccc(-c3nc4ccc(F)cc4nc3-c3ccccc3)cc2)CC1 | inconclusive [inhibitor, partial curve]
5 | O=C(OC1CCN(c2ncc(C(F)(F)F)cc2Cl)CC1)c1ccc(Cl)cc1 | inconclusive [inhibitor, single point]
6 | COc1cc(C)c(CNCCc2c[nH]c3ccccc23)cc1C | inconclusive [inhibitor, partial curve]
7 | CN(C)c1ccc(N/C=C/C(=O)C(F)(F)F)cc1 | inconclusive [inhibitor, partial curve]
8 | COc1ccc(-n2nc(C(=O)NCC(=O)NCc3ccc(F)cc3)c3ccccc3c2=O)cc1OC | inconclusive [inhibitor, partial curve]
9 | COCCCN(C(=S)Nc1cc(Cl)cc(Cl)c1)C(C)c1ccccn1 (stereo not drawn) | inactive
10 | CCCCOc1ccc2c(c1)/C(=C(\C(Cl)=C(Cl)Cl)[N+](=O)[O-])N2 | inactive
11 | O=C(Nn1c(SCc2cccc([N+](=O)[O-])c2)nc2ccccc2c1=O)c1ccccc1 | inactive
12 | COc1cccc(NC(=O)CN(C)C(=O)CSc2nc3ccccc3s2)c1 | inconclusive [inhibitor, partial curve]
13 | CCOC(=O)c1c(NC(=O)C2CCCN(S(=O)(=O)c3ccc(C)cc3)C2)sc2c1CCCC2 (stereo not drawn) | inconclusive [inhibitor, partial curve]
14 | CCC12CCCN3CCC4(C(=C(C(=O)OC)C1)Nc1ccccc14)C32 (stereo not drawn) | inconclusive [inhibitor, single point]
15 | CN1c2ccccc2C2(C)CCCC3=Cc4cc([N+](=O)[O-])cc([N+](=O)[O-])c4OC312 (stereo not drawn) | inconclusive [inhibitor, partial curve]
16 | CCC(C)Nc1nc(N)c([N+](=O)[O-])c(Nc2cc(OC)ccc2OC)n1 (stereo not drawn) | inconclusive [inhibitor, partial curve]
17 | COc1ccc(Nc2nc(C(=O)N3CCc4ccccc4C3)cs2)cc1 | inconclusive [inhibitor, single point]
18 | CCOC(=O)C1=C(N)Oc2cc(C)n(CCc3ccc(OC)c(OC)c3)c(=O)c2C1c1cccnc1 (stereo not drawn) | inactive

Source: PubChem BioAssay AID720542 (National Center for Advancing Translational Sciences (NCATS), 2013)
